In US11299538B2, “Anti-IGF antibodies” (Boehringer Ingelheim International GmbH, priority 2008, dated 2022):

How the values were obtained:
[1] = pharmacokinetic parameters in rats (plasma sandwich ELISA); type: in vivo, Wistar rats; conditions: for AUC (0-72 h) / C(max) / CL / V(ss): first day of dosing; for t1/2φ: after last day of dosing with t(n) = 1008 hr
Protocol: Wistar rats are given five intravenous bolus administrations of 18, 52, and 248 mg/kg antibody every 72 hours. At various time points a blood sample is taken and the human antibody concentration in the plasma is determined by sandwich ELISA.

[2] = tested on: human IR-A phosphorylation; assay: cell based IR-A phosphorylation ELISA; conditions: stimulus IGF-2 (100 ng/mL)
[3] = target: T1, Rat IGF-1 (Rattus norvegicus, UniProt P08025); assay: surface plasmon resonance (Biacore), antibody capture method; type: binding
T1 construct: Insulin-like growth factor-1 (IGF-1; a 70 amino-acid polypeptide)
Protocol: (§1) The sensor chip is coated with approximately 1000 RU of the reference antibody in flow cell 1 and approximately 1000 RU of a rabbit-anti-human Fc-gamma-specific antibody in flow cell 2 using the coupling reagents from an amine coupling kit. A target of 1000 RU is set in the surface preparation wizard of the Biacore 3000 software at a flow rate of 5 μl/min Running buffer used is HBS-EP. […] The IGF antigens are diluted to 500, 250, 125, 62.5 and 31.3 nM in running buffer (HCB) and the different antigen dilutions are run singly over Fc1 and Fc2 with random order. Blank runs using running buffer only are run in-between. A blank run curve is subtracted from each binding curve before affinity analysis. Data evaluation is performed using the BIAevaluation software (version 4.1, Biacore, Freiburg, Germany) The dissociation and association phases of the kinetics are fitted separately. For the separate fit of the kdiss values a time-frame of the initial 200-300 seconds in the dissociation phase is used (range of steady decrease of signal). For the separate fit of the kass values, initial time frames of approx 100 seconds are used (range of steady increase of signal) and for calculation the individual kdiss values are used with the 1:1 Langmuir association model. The average values with the standard deviations of the kinetic data together with the corresponding dissociation (KD) and association (KA) constants are calculated.
(§2) Affinity constants for binding of the antibodies to human, mouse, and rat IGF-1 and IGF-2 is also determined by surface plasmon resonance (Biacore) analysis. The method involves capturing the antibodies on the sensor and flowing the IGF antigens over the captured antibodies, thus overcoming any avidity effect that could occur if the IGF antigens are coated onto the sensor and the antibodies added.

[4] = target: T2, Human IGF-2 (Homo sapiens, UniProt P01344); assay: as above; type: binding
T2 construct: insulin-like growth factor-2 (IGF-2; a 67 amino-acid polypeptide)
Protocol: as §1, §2

[5] = target: T3, human IGF-1 (Homo sapiens, UniProt P05019); assay: as above; type: binding
T3 construct: Insulin-like growth factor-1 (IGF-1; a 70 amino-acid polypeptide)
Protocol: as §1, §2

[6] = target: T4, Mouse IGF-2 (Mus musculus, UniProt P09535); assay: as above; type: binding
T4 construct: insulin-like growth factor-2 (IGF-2; a 67 amino-acid polypeptide)
Protocol: as §1, §2

[7] = target: T5, Mouse IGF-1 (Mus musculus, UniProt P05017); assay: as above; type: binding
T5 construct: Insulin-like growth factor-1 (IGF-1; a 70 amino-acid polypeptide); purchased R&D Systems 791-MG
Protocol: as §1, §2

[8] = target: T6, Rat IGF-2 (Rattus norvegicus, UniProt P01346); assay: as above; type: binding
T6 construct: insulin-like growth factor-2 (IGF-2; a 67 amino-acid polypeptide)
Protocol: as §1, §2

[9] = tested on: TC-71 cells; assay: Ewing's sarcoma-derived cell line growth assay; type: cell-based; conditions: medium containing 10% FCS; relative to humanized IgG1 isotype control; FIG. 5
Protocol: The typical concentrations used are 30, 10, 3.3, 1.1, 0.37, and 0.12 μg/ml (or 100, 10, 1, 0.1, 0.01, 0.001 nM rapamycin and test antibody for combination studies) and each dilution is performed in triplicate wells. The cells plus antibody are then incubated for 120 hours after which time the relative cell number in each well is determined using the CellTiter-Glo luminescent cell viability assay (Promega). Luminescence (LU=Luminescence Units) is recorded using a XFluor GENios Pro 4 and for data analysis the mean value from triplicate wells is taken and fitted by iterative calculations using a sigmoidal curve analysis program (Graph Pad Prism) with variable Hill slope.

T2 sequence (P01344 25-91 limits assumed): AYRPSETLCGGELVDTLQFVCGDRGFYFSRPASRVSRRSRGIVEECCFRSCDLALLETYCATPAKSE
T6 sequence (P01346 25-91 limits assumed): as the sequence (P01344 25-91 limits assumed) above, with G22S, A32S, V35A, S36N counted along it
T5 sequence (P05017 49-118 limits assumed): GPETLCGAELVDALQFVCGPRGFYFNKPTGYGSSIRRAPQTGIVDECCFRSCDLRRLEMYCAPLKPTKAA
T4 sequence (P09535 25-91 limits assumed): as the sequence (P01344 25-91 limits assumed) above, with R3G, S5G, G22S, A32S, V35A, S36N counted along it
T1 sequence (P08025 49-118 limits assumed): as the sequence (P05017 49-118 limits assumed) above, with A69S counted along it
T3 sequence (P05019 49-118): as the sequence (P05017 49-118 limits assumed) above, with P20D, I35S, T67A, A69S counted along it

B1: 60833: fully human IgG1/Igλ anti-IGF antibody; heavy chain SEQ ID NO:39, light chain SEQ ID NO:40 (antibody, listed as Homo sapiens)
heavy: QVELVESGGGLVQPGGSLRLSCAASGFTFTSYWMSWVRQAPGKGLELVSSITSYGSFTYYADSVKGRFTISRDNSKNTLYLQMNSLRAEDTAVYYCARNMYTHFDSWGQGTLVTVSS[human IgG1 constant region left out here]
light: DIVLTQPPSVSGAPGQRVTISCSGSSSNIGSNSVSWYQQLPGTAPKLLIYDNSKRPSGVPDRFSGSKSGTSASLAITGLQSEDEADYYCQSRDTYGYYWVFGGGTKLTVLGQPKAAPSVTLFPPSSEELQANKATLVCLISDFYPGAVTVAWKGDSSPVKAGVETTTPSKQSNNKYAASSYLSLTPEQWKSHRSYSCQVTHEGSTVEKTVAPTECS
AUC (0-72 h) ([1]; 18 mg/kg i.v. bolus): 15500 µg·h/mL | C(max) ([1]; 18 mg/kg i.v. bolus): 531 µg/mL | CL ([1]; 18 mg/kg i.v. bolus): 22.9 (mL/day)/kg | V(ss) ([1]; 18 mg/kg i.v. bolus): 0.0681 L/kg | t1/2φ ([1]; 18 mg/kg): 210 h | AUC (0-72 h) ([1]; 52 mg/kg i.v. bolus): 40200 µg·h/mL | C(max) ([1]; 52 mg/kg i.v. bolus): 1700 µg/mL | CL ([1]; 52 mg/kg i.v. bolus): 28.7 (mL/day)/kg | V(ss) ([1]; 52 mg/kg i.v. bolus): 0.0763 L/kg | t1/2φ ([1]; 52 mg/kg): 197 h | AUC (0-72 h) ([1]; 248 mg/kg i.v. bolus): 120000 µg·h/mL | C(max) ([1]; 248 mg/kg i.v. bolus): 5560 µg/mL | CL ([1]; 248 mg/kg i.v. bolus): 37.3 (mL/day)/kg | V(ss) ([1]; 248 mg/kg i.v. bolus): 0.0654 L/kg | t1/2φ ([1]; 248 mg/kg): 255 h | % Remaining Phosphorylation at 15 μg/mL (100 nM) Inhibitor [2]: 6% | Koff [3]: 0.000253 s⁻¹ | Kon [3]: 3.81e+06 M⁻¹ s⁻¹ | Kd [4]: 0.9 nM | Koff [4]: 0.00353 s⁻¹ | Kon [4]: 3.97e+06 M⁻¹ s⁻¹ | Koff [5]: 0.000301 s⁻¹ | Kon [5]: 4.74e+06 M⁻¹ s⁻¹ | Koff [6]: 0.011 s⁻¹ | Kon [6]: 868000 M⁻¹ s⁻¹ | Koff [7]: 0.000323 s⁻¹ | Kon [7]: 1e+06 M⁻¹ s⁻¹ | Koff [8]: 0.00613 s⁻¹ | Kon [8]: 2.56e+06 M⁻¹ s⁻¹ | effect on TC-71 cell proliferation [9]: dose-dependent inhibition
